The results in this text go back to article PMC12136788.

This is one part of the list.

Sequences and labels used below:
T1: UNK ZnF1-3 (human, UniProt Q9C0B0 31-174)
T1 sequence: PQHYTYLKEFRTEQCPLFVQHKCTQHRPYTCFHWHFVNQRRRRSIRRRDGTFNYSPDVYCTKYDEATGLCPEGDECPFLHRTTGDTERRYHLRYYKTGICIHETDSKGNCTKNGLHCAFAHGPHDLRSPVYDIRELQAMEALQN

B1: chr2:61275951:61275952:+_ENSG00000162928_ENST00000295030|hu_hu|motif|central (ssRNA)
RNA: GGGAGUUCUACAGUCCGACGAUCGUUUUCAUUGGAUUGUACAUUCAUUUCUUUGUGAGAAAUAAUUUUAAAAAGUACUCGGAAGUAUUGUUCAACUGCAGGCAAACAUGAAAGAUAUCAAAGAUCUUGCUUUUCUCCAUCUUUCAACAGAGGAUUGAGCAUCA
B2: 4150348_4153603_2001_CDS_ENSG00000167325_ENST00000300738|human|control|control (ssRNA)
RNA: GGGAGUUCUACAGUCCGACGAUCAGGUUCAAUGGACUCAUUAUUCCCCAGGAUCUGAGCAGUGGAAGCUGUAGGCAUCGGGGCAAUAAGUAAACUGUUUCUUAUACCAUACUUUGCAAUCUUCUCCUUGAGAACCUUCCAGUCCAACAGAGGAUUGAGCAUCA
B3: chr1:39494564:39494565:+_ENSG00000168653_ENST00000372967|hu_hu|hu_hu_hu_mus_True|1_88 (ssRNA)
RNA: GGGAGUUCUACAGUCCGACGAUCAUGCAUUCGCCUCAUCGUUUUGUGCCGAAGCAAGCACUCUUCGAAGUCAUCGAACUCUAUCUUGCACUCCUUUUUCGCCCGGGUCCCACCGAUCCCGUGUGCACACUCUAUCCAUUCUUUCAACAGAGGAUUGAGCAUCA
B4: chr7:135612270:135612271:-_ENSG00000105887_ENST00000393085|hu_mus|hu_hu_hu_mus_False|8_48 (ssRNA)
RNA: GGGAGUUCUACAGUCCGACGAUCGUUUUUUUCUGAGAUGUUAAAUAGUACUUCAGUGGAAAACAAAACUUAACCUUUUAUUAAUGCAUGUAGUACCAAAAGCAGACAUUUUAGCUUCAUUUAUUCACUCAAAAUAUCAUUAAGCAACAGAGGAUUGAGCAUCA
B5: chr13:103288631:103288632:+_ENSG00000134900_ENST00000376065|hu_hu|FALSE|FALSE (ssRNA)
RNA: GGGAGUUCUACAGUCCGACGAUCCUGAACAGGAUCUCGGAGGUAGAUGCCACGGUUAUUUCCAACAGUAACAGUAAAACCUAAUUUAUUAGCAAAUGAUGUAUUCUGAACGAGGUAGUCAUAGGCUUUAUCAACCUGAAUAAUCAACAGAGGAUUGAGCAUCA
B6: chr8:48874918:48874919:+_ENSG00000104738_ENST00000523944|hu_hu|motif|central (ssRNA)
RNA: GGGAGUUCUACAGUCCGACGAUCAUUUACAUCUGUUCCCCAGAUCACAAGUUUUUGGCCUAGAGACUGCUCACUUGCCACGGUAUCUUCUGCUGCUGCCCCGUCAGACUGCAGAUCCACUUGCAGGCCCUUCUGUGCAGAGCCCAACAGAGGAUUGAGCAUCA
B7: chr2:136389457:136389458:+_ENSG00000048991_ENST00000409478|hu_hu|FALSE|FALSE (ssRNA)
RNA: GGGAGUUCUACAGUCCGACGAUCCUGAUCAACAUUGUGGUCUAAUCCAAAGUAAGCGGCUACUCUGUGUAAUAGCAUCCUAUGGUAAGAUGUCAUUGGGGGGAAUUUUUUACGUGGAGACUCAUUAUUACCAAUGAAAUCUAACAACAGAGGAUUGAGCAUCA
B8: chr4:17845017:17845018:+_ENSG00000109805_ENST00000514176|hu_mus|hu_hu_hu_mus_False|18_58 (ssRNA)
RNA: GGGAGUUCUACAGUCCGACGAUCGCUCUCUUAACUUGUAUCUUCAUUAAGGAACUCUGCAAGGUUAAGUUUACUUUUUCUAGUGCUAGCUGUUUUGGCUCGUCUGGGUAAUCUCAUUUCAUUUCUGGAUGGUGGUUCAUGAUCCAACAGAGGAUUGAGCAUCA
B9: chr10:33214929:33214930:-_ENSG00000150093_ENST00000302278|hu_hu|hu_hu_hu_mus_True|18_98 (ssRNA)
RNA: GGGAGUUCUACAGUCCGACGAUCAACAAGUUCAUUGAAUACUUCUCCUCUGUCAGUAAGACUAAGCACAUUUUUGUAGCUAAAUGGGCUGGUGCAGUUUUGUUCACUUGUACAAGGGUUCCUGAGCUUUGCUGGGGUUGUGCUCAACAGAGGAUUGAGCAUCA
B10: chr7:54823571:54823572:-_ENSG00000132432_ENST00000352861|hu_mus|hu_hu_hu_mus_False|58_58 (ssRNA)
RNA: GGGAGUUCUACAGUCCGACGAUCUCCCAUGAUAGCAAAUCCUAUAGCUGUAGCCAUGGCAAUCUUCUGGAAUUCUUUUCUAUCAGGUUUGGUGCAUCUUUUAACCAGCCGAAUUGAGUCCUUUACAAACUGCCGGCUGGGCUCCAACAGAGGAUUGAGCAUCA
B11: 85003670_85003790_3496_3pUTR_ENSMUSG00000018481_ENSMUST00000018625|mouse|control|control (ssRNA)
RNA: GGGAGUUCUACAGUCCGACGAUCUCCCCUCACCGACAUACAAACAUGCUAACAAAACAGAAUCUGACACAUACCCAUUCACUCACACCUCCAAGCACUGCCGGGAGCAGUGUAGCUAACAGCCAAGUCAGAGCCCCUGAAAAUCAACAGAGGAUUGAGCAUCA
B12: chr11:100452292:100452293:-_ENSMUSG00000014195_ENSMUST00000014339|perfect_dup|motif|central (ssRNA)
RNA: GGGAGUUCUACAGUCCGACGAUCCAUUUGUUUUUAUAUUGUUGGGGUCUAUCCCCAGGGCUUCUGUGUACAGUUCAUAUGCGGGUUUGUAAUUUCCUUCCUUAAAUGCUUUAUUCCCAUCUUCUUUCUUUGCUUUGAGUGCUUCAACAGAGGAUUGAGCAUCA
B13: chr12:88580095:88580096:-_ENSMUSG00000021038_ENSMUST00000072744|mus_hu|FALSE|FALSE (ssRNA)
RNA: GGGAGUUCUACAGUCCGACGAUCAAGGGGAUGUCUCAUCACCCAAGCAAGGUCGUCUGUGUUCAAGUGAGAGAAGAACCUUAGGGUUUUGGACAGAGUAAACUGGGGCAGCAGAGGGAAAAUGGCUGAGGAAACACAACGUCUCAACAGAGGAUUGAGCAUCA
B14: chr7:141445308:141445309:+_ENSG00000106028_ENST00000265304|hu_hu|hu_hu_hu_mus_False|8_48 (ssRNA)
RNA: GGGAGUUCUACAGUCCGACGAUCUAUGAUUGUUGUUGCUUGCCGCCUCACAUUGUUUUUAUCCAUGUACUCGCCAUAGUCCACUUUCCCUUCCAAAAAUAUACGAGCCCCCUUUUUCACAUACUGAUAUGCCACGUCUCUGAGCAACAGAGGAUUGAGCAUCA
B15: chrX:140365796:140365797:-_ENSMUSG00000031285_ENSMUST00000033642|mus_mus|mus_mus_mus_hu_False|8_8 (ssRNA)
RNA: GGGAGUUCUACAGUCCGACGAUCCUUCUCAUUACUCAGUGCCUGCAAGGUUCUGGUUCGGUAGAAGCUACAGUGGGCGCUGUGAGUGGGGCUAGGCAACCCAUUCAUCCGGGAGCCUCGCAUGUUCCUAGAUGCUUUAUCUCUCAACAGAGGAUUGAGCAUCA
B16: chr17:61655871:61655872:+_ENSG00000136485_ENST00000310827|hu_mus|FALSE|FALSE (ssRNA)
RNA: GGGAGUUCUACAGUCCGACGAUCGGUAGGGUACGGGUGGUCAAAGGUGUUUCGGCAAAUAAACUCUGAACUCUCCUCAUCUAAACCAACAAGCUGAACCUUGUUGUUGUACUCUUCCACGAAGCUGCCCAGCGCCAGGCGAAACAACAGAGGAUUGAGCAUCA
B17: 52792555_52792675_286_CDS_ENSMUSG00000020954_ENSMUST00000169503|mouse|control|control (ssRNA)
RNA: GGGAGUUCUACAGUCCGACGAUCGGCCGGAGGACCCCCGCCGCCCGGCGCUCCGUUCGCUCCCGGCGGCAGGCUCAGGUUCCCCCCGGGUCCCUGCUGCGGCCGGGGAGGGGCUGCCAUCCCCUGGCCGCCGCCGCCGCCUCCCAACAGAGGAUUGAGCAUCA
B18: chrX:71549400:71549401:+_ENSMUSG00000019087_ENSMUST00000019231|mus_hu|mus_mus_mus_hu_False|38_78 (ssRNA)
RNA: GGGAGUUCUACAGUCCGACGAUCGCAGUAGGAAGAGGGAAGCUCUUCAGUCCAGUGGUCACAAAACUGGGAAAGCAACAACACGGACACCGUCCCACCUCAAUUCCCCCCACUGGCACAGGGUCACACAAUCUGGGUCAAAGACAACAGAGGAUUGAGCAUCA
B19: 40207750_40207870_2679_CDS_ENSMUSG00000036822_ENSMUST00000042575|mouse|control|control (ssRNA)
RNA: GGGAGUUCUACAGUCCGACGAUCCCUCCUCUUGUGUUUUGUCUCUCUGUCUGAUGAUCUGCUAUCUGAAAAGCUGUCACUCUCAUUUUUAUAACUGCCAUCCAAUUUUGAUUUUUGGUAAUGACUGUCCUUCCCUUUGGAAGUCAACAGAGGAUUGAGCAUCA
B20: chr10:86154994:86154995:-_ENSMUSG00000020048_ENSMUST00000020238|mus_mus|motif|central (ssRNA)
RNA: GGGAGUUCUACAGUCCGACGAUCCGCCUUGGUGUCUGGUAGAAGAUAUCCUGACCGAAGUGUUGCCGUUUCAAACAAAACGGCAGCAAGAUCCAUGACUGUCUUGUCAUCUUCAUCUUCCUUAAUCCGCCGCAACAUGUCUCUCAACAGAGGAUUGAGCAUCA
B21: 88792706_88792826_418_ncRNA_ENSMUSG00000033152_ENSMUST00000141401|mouse|control|control (ssRNA)
RNA: GGGAGUUCUACAGUCCGACGAUCCGGGAGGGGCGCGGGGCCGUGGCGUCGGGCAGUCUCGCGCCCGUGGCCCGGCGCUCACAGGUGAGUGUCCUCCUCGAACACGUCCGAGUCCUCAGGGUCGCGUUUGCUGCCCAUGAGCGCCAACAGAGGAUUGAGCAUCA
B22: chr14:102359341:102359342:+_ENSG00000078304_ENST00000445439|hu_hu|motif|central (ssRNA)
RNA: GGGAGUUCUACAGUCCGACGAUCUUUUAGUGGUAAGGCAAAUCCAUUAAUUAUACUUCCCAAUAUUUCCAGUAACUCUGCGGUGCCAUUAUGAUGCUCUGUUUCAUAAAUAAACCUAUAAAAUAUAUUAUUUAUCUGUUUUCUCAACAGAGGAUUGAGCAUCA

For this experiment, the target named is T1, UNK ZnF1-3. The experiment can be described thus: nsRBNS (natural sequence RNA bind-n-seq); RBNS binding buffer (assumed for nsRBNS): 25 mM Tris pH 7.5, 150 mM KCl, 3 mM MgCl2, 0.01% Triton X-100, 500 ug/ml BSA, 20 U/ml SUPERase-In, 4 C; UNK is unkempt and MSI1 is Musashi-1; names of the RNAs are library labels; protein concentration not given here; high values mean tight binding.
The molecule B1 returned a binding signal of 0.619 enrichment R. As for B2, the figure is 0.831 enrichment R. The result for B3 reads 0.798 enrichment R. As for B4, the figure is 0.799 enrichment R; as for B5, 1.03 enrichment R. In turn, B6 registered a binding signal of 0.828 enrichment R.

Consider B7, for which the binding signal was 0.968 enrichment R. The result for B8 reads 0.391 enrichment R. The result for B9 reads 0.902 enrichment R. The result for B10 reads 0.972 enrichment R; that for B11, 1.54 enrichment R; that for B12, 0.27 enrichment R. B13 returned a binding signal of 1.4 enrichment R. In the case of B14, the binding signal was determined as 0.805 enrichment R. The result for B15 reads 0.664 enrichment R; that for B16, 0.971 enrichment R; that for B17, 0 enrichment R.

For the molecule B18, the binding signal is 1.9 enrichment R. The result for B19 reads 0.437 enrichment R; that for B20, 0.493 enrichment R. The result for B21 reads 0.489 enrichment R. The result for B22 reads 0.358 enrichment R.
